The structures appear in SMILES notation. For part of its entries the source gives two or more results. The other results are left out here. There may be further records. The values listed for one entry are repeated measurements across runs, samples, wells, individuals or studies. Records carry a tag for their origin. A, B and so on number the origins entry by entry.

The species named for series [1] is Rattus norvegicus. The series can be described thus: DrugMatrix - Regimen: Daily Repeat. As to conditions: in vivo, 0 mg/kg, dose level Control. Type of series: toxicity, organism-based, Sprague-Dawley. Also noted: regimen Daily Repeat, gender Male, age 6-8 weeks.
For series [2], the species on record is Rattus norvegicus. Type of series: toxicity, organism-based, Sprague-Dawley. As to conditions: in vivo, sc, 0 mg/kg, 24 h, vehicle control, tissue Blood, route mini-PUMP - SUBCUTANEOUS, dose level Control, time 1 day, vehicle 100 % SALINE.
Where [3] appears, read: sc, 72 h, tissue Blood, route mini-PUMP - SUBCUTANEOUS, time 3 day, vehicle 100 % SALINE.
The mark [4] stands for this setting: sc, 120 h, tissue Blood, route mini-PUMP - SUBCUTANEOUS, time 5 day, vehicle 100 % SALINE.
The mark [5] stands for this setting: po, 72 h, tissue Blood, route oral GAVAGE, time 3 day, vehicle 100 % WATER.
The mark [6] stands for this setting: po, 120 h, tissue Blood, route oral GAVAGE, time 5 day, vehicle 100 % WATER.

With `CC[C@H](C)[C@H](NC(=O)[C@H](Cc1ccc(O)cc1)NC(=O)[C@@H](NC(=O)[C@H](CCCNC(=N)N)NC(=O)[C@@H](N)CC(=O)O)C(C)C)C(=O)N[C@@H](Cc1cnc[nH]1)C(=O)N1CCC[C@H]1C(=O)N[C@@H](Cc1ccccc1)C(=O)O` [ANGIOTENSIN II], in the series filed under Rattus norvegicus [1] (setting [3]), the “ABSOLUTE BASOPHIL” value is 0.0333 CELLS/uL [study A] and 0 CELLS/uL [study B]; the “ABSOLUTE EOSINOPHIL” value was 0.0533 CELLS/uL [study A] and 77.17 CELLS/uL [study B]; the “ABSOLUTE LYMPHOCYTE” value is 9.92 CELLS/uL [study A] and 14293.83 CELLS/uL [study B]. Besides, in the series listed under Rattus norvegicus [1] (setting [4]), the “ABSOLUTE BASOPHIL” value is 0.0233 CELLS/uL [study A] and 0 CELLS/uL [study B]; the “ABSOLUTE EOSINOPHIL” value was 0.0367 CELLS/uL [study A] and 0 CELLS/uL [study B]; the “ABSOLUTE LYMPHOCYTE” value was 8.92 CELLS/uL [study A] and 14257.33 CELLS/uL [study B]; the “ABSOLUTE MONOCYTE” value was 0.24 CELLS/uL [study A] and 326 CELLS/uL [study B]. In the series listed under Rattus norvegicus [2], the “ABSOLUTE BASOPHIL” value was 0.0533 CELLS/uL [study A] and 0 CELLS/uL [study B]; the “ABSOLUTE EOSINOPHIL” value is 0.0333 CELLS/uL [study A] and 26.17 CELLS/uL [study B]; the “ABSOLUTE LYMPHOCYTE” value is 8.34 CELLS/uL [study A] and 10985.83 CELLS/uL [study B]; the “ABSOLUTE MONOCYTE” value was 0.3 CELLS/uL [study A] and 234.5 CELLS/uL [study B].
Regarding `CCCC(CCC)C(=O)O` [VALPROIC ACID], in the series listed under Rattus norvegicus [1] (setting [5]), the “ABSOLUTE EOSINOPHIL” value was 108.67 CELLS/uL [study A] and 33.67 CELLS/uL [study B]; the “ABSOLUTE MONOCYTE” value was 216.67 CELLS/uL [study A] and 72.17 CELLS/uL [study B]. In the series filed under Rattus norvegicus [1] (setting [6]), the “ABSOLUTE EOSINOPHIL” value is 0 CELLS/uL [study A] and 48.67 CELLS/uL [study B]; the “NUCLEATED RED BLOOD CELLS” value is 0 /100WBC [study A] and 0.33 /100WBC [study B]. In the series filed under Rattus norvegicus [1] (po, 120 h, tissue Plasma, route oral GAVAGE, time 5 day, vehicle 100 % WATER), the “LACTATE DEHYDROGENASE” value was 58 u/L [study A] and 180 u/L [study B].
Take `COc1ccc2c(c1)c(CC(=O)O)c(C)n2C(=O)c1ccc(Cl)cc1` [INDOMETHACIN]: the “ABSOLUTE EOSINOPHIL” value in the series listed under Rattus norvegicus [1] (setting [5]) was 0 CELLS/uL [study A] and 91.5 CELLS/uL [study B].

For the origin of these results see ChEMBL document CHEMBL3885881, “DrugMatrix”.
